Results as given in article PMC4336329 (PLoS ONE, 2015).
In all, about 310,000 compounds went through this assay and about 14,000 (4.5%) showed an effect of 50% or more. Effects have a minus sign here. This is one part of the list.

target: human ether-à-go-go-related gene (hERG) potassium channel (human, UniProt Q12809); assay: primary screen, population patch clamp on CHO cells stably expressing hERG
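Also: peak tail current of the secondary pulse compared with the same well before compound.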

Sequence of human ether-à-go-go-related gene (hERG) potassium channel (Q12809 whole entry, looked up): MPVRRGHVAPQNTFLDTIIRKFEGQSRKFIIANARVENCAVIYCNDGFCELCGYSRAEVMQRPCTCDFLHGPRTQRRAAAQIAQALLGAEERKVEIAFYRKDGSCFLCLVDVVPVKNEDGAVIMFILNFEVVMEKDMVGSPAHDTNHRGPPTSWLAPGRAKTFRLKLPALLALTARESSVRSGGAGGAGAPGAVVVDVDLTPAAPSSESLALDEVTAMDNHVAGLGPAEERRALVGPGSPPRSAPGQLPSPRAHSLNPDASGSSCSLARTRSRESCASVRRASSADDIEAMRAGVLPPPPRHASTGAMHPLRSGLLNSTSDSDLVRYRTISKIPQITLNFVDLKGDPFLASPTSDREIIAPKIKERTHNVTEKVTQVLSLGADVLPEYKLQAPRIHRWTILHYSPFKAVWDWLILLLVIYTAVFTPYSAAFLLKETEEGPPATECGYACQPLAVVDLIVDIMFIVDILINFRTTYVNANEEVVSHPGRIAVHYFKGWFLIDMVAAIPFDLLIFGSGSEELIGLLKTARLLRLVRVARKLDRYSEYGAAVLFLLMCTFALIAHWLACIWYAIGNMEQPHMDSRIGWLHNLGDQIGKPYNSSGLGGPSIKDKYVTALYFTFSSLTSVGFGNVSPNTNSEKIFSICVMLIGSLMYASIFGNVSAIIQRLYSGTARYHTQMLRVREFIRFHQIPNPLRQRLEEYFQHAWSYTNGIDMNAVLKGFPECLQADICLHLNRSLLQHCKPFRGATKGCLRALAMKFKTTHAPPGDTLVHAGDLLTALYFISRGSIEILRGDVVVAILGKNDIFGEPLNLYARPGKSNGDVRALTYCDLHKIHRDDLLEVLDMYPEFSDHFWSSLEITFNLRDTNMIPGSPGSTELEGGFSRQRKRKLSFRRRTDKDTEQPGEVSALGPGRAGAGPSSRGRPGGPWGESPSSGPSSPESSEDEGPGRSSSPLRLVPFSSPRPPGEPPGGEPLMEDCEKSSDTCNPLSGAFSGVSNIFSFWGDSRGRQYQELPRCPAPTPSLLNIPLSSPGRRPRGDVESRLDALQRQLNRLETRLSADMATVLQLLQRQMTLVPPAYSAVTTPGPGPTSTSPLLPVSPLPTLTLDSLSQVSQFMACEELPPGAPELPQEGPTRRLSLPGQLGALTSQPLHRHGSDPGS

SMILES | hERG current change (%, negative = inhibition) at 10uM [%]
Cc1ccccc1OCc1nnc(SCC(=O)O)n1-c1ccccc1 | 14.4
O=C(COc1ccccc1)Nc1nnc(-c2ccccc2Cl)o1 | 8.56
O=C(O)COc1ccc(/C=N/O)cc1Br | 8.08
Cc1cccc(-n2c(Cn3nc(C)c([N+](=O)[O-])c3C)n[nH]c2=S)c1 | 10.3
CC(C)COc1cccc(C(=O)NNC(=O)C2COc3ccccc3O2)c1 (stereo not drawn) | -4.24
O=C(CN1CC(=O)Nc2ccccc21)Nc1ccc(F)c(F)c1 | 13.9
N#Cc1cc2sc3nnc(-c4ccncc4)n3c2cc1C#N | -54
Cc1cccc(-c2nnc(SCC#N)n2Cc2ccccc2)c1 | -66.6
COc1ccc(OCC(=O)N/N=C/c2ccncc2)cc1 | 17.9
CC1(C)c2ssc(=S)c2-c2ccccc2N1C(=O)CSC1=NCCS1 | 11.7
COCCCN1CC23C=CC(O2)C(C(=O)OC)C3C1=O (stereo not drawn) | -5.4
CC(C)CC(COCc1cccc(C(F)(F)F)c1)N1CCN(C(=O)c2cccc(C(F)(F)F)c2)CCC1=O (stereo not drawn) | -12
O=C(/C=C/c1cccc([N+](=O)[O-])c1)N1CCN(C(=O)c2ccco2)CC1 | -64.8
CN1CC(c2ccccc2Cl)C2(COc3ccccc3C2=O)C12C(=O)Nc1ccccc12 (stereo not drawn) | -15.1
Cc1nc(CCNC(=O)CC2C(=O)NCCN2CC(C)C)nc2c1CCC2 (stereo not drawn) | 16.8
COc1cc(C2NC(=O)NC(C)=C2C(C)=O)ccc1O (stereo not drawn) | 7.7
CCOc1ccc(N(CC(=O)NCc2ccccc2)S(=O)(=O)c2ccc(C)cc2)cc1 | 4.04
Cc1cccc(NS(=O)(=O)c2ccc(C)c(C(N)=O)c2)c1 | 13.1
CC1CCCCN1C(=O)C1CCN(c2nc(-c3ccccc3)nc3c2CCC3)CC1 (stereo not drawn) | -42.4
CCc1ccc(-c2cc(C(=O)NCCCn3ccnc3)c3ccccc3n2)s1 | -73.6
Cc1ccc(NC(=O)c2ccc(CNc3c(N4CCC(C)CC4)c(=O)c3=O)cc2)cc1 | 22.8
Cc1ccc(CC(SCc2ccccc2)C(=O)O)cc1C (stereo not drawn) | 8.52

SMILES | hERG current change (%, negative = inhibition) at 10uM [%]
CCN(CC(=O)Nc1cc(Cl)ccc1C)C(=O)CN1C(=O)NC2(CCCC2)C1=O | 8.3
CN(C)C(=O)CN1CCN(C(=O)CCl)CC1.Cl | -7.65
CCC(=O)NNc1nc2c(C)c(C)ccc2s1 | 6.14
Cn1c(C(C(=O)NCC2CCCO2)N(C(=O)Cn2nnc3ccccc32)C2CCCCC2)nc2ccccc21 (stereo not drawn) | -4.55
CC#CCN1c2ccccc2[C@]23C[C@@H](C(=O)OC)N(C(=O)c4ccco4)C2=NC(C(=O)OC)=C(C(=O)OC)[C@H]13 | -2.03
CCN(C#N)c1nc(NC(C)C)nc(NC(C)C)n1 | -1.09
CCOC(=O)c1cc(-c2ccc(Cl)cc2)nc2onc(C)c12 | 5.04
Cc1ccc(S(=O)(=O)N2CCN(C(=O)CSc3ccc(F)cc3)CC2)cc1 | 18.7
c1ccc(CCSc2ncnc3nc[nH]c23)cc1 | 2.87
COc1ccc(NC(=S)N2CCN(S(=O)(=O)c3ccc(F)cc3)CC2)cc1 | -0.0908
O=C(N/N=C/C=C/c1ccc2c(c1)OCO2)c1ccc([N+](=O)[O-])cc1 | -6.87
O=C(c1ccc2c(c1)OCO2)C1CCCN(Cc2ccc(F)c(F)c2)C1 (stereo not drawn) | -65.4
O=C(NCC1CCCO1)c1c(O)nc2sccn2c1=O (stereo not drawn) | -17.1
O=C(N[C@@H](Cc1c[nH]c2ccccc12)C(=O)O)C1CCN(S(=O)(=O)c2ccc(Cl)cc2)CC1 | 7.53
O=S(=O)(Nc1cc(Cl)ccc1N1CCCCC1)c1cccs1 | 9.45
Cc1ccccc1Nc1nc(N)nc(COC(=O)c2ccc([N+](=O)[O-])o2)n1 | -10.9
Brc1ccc(C2=CC(c3ccco3)n3nnnc3N2)cc1 (stereo not drawn) | 3.13
CCN(CC)S(=O)(=O)c1cc(C)c(C)cc1OCC(=O)NC1CCCC1 | -23.1
O=C(CCl)Nc1cccc(S(=O)(=O)N2CCCCCC2)c1 | -20.6
Cc1ccc(NC(=O)c2ccco2)c(NC(=O)c2ccc(Cl)cc2)c1 | 3.74
Cc1cnc(C(=O)OCC(=O)Nc2cc(-c3ccccc3)nn2-c2ccccc2)cn1 | -38.6
O=C(Nc1ccccc1F)C1CCCN1S(=O)(=O)c1cccc2nsnc12 (stereo not drawn) | -7.47

SMILES | hERG current change (%, negative = inhibition) at 10uM [%]
CCOC(=O)[C@H]1[C@H]2COc3cc(OC)ccc3[C@@H]2N2C(=O)CN(Cc3ccc(OC)cc3)C(=O)[C@@]12C | -1.96
COc1ccccc1CNC(=O)C1CC2Cn3c(nc4cc5ccccc5cc43)C2N1C (stereo not drawn) | -43.8
Cn1c(N)c(C(=O)CSc2nc(N)cc(N)n2)c(=O)n(C)c1=O | 41.4
c1ccc(Nc2ccc3c4c(cccc24)CC3)cc1 | 12.8
COc1cccc(NC(=O)c2cc3c(=O)n4ccccc4nc3n(CC(C)C)c2=N)c1 | -82
Cc1onc(-c2ccccc2)c1C(=O)OCC(=O)NC(C)c1ccc(Cl)cc1 (stereo not drawn) | -7.03
O=C(NCCCN1CCOCC1)c1ccc(CSCc2cccc(Cl)c2)o1 | -64.4
COc1cccc(C(=O)Nc2cccc(-c3ccc4nncn4n3)c2)c1OC | -7.32
Cc1ccc(C(C)(C)C)cc1S(=O)(=O)Nc1cccc(S(=O)(=O)NC2=NCCC2)c1 | 13.1
CNC(=O)COc1coc(CN2CCN(C(=O)c3ccco3)CC2)cc1=O | 7.13
COc1ccc(NC(=O)CSc2nc3c([nH]c4ccccc43)c(=O)n2C)c(OC)c1 | 19
Cc1ccc(CCNC(=O)c2ccc3nc4ccc(Cl)cc4c(=O)n3c2)cc1 | 20.4
O=C(/C=C\Nc1ccc(Br)cc1)c1cccnc1 | -6.19
O=C(NCC(c1ccccc1Cl)N1CCCC1)C1CCN(C(=O)Nc2ccccc2)CC1 (stereo not drawn) | -1.67
CC(C)c1ccc(OCCCN2CCCC2)cc1 | -67.1
CNc1nnc(SCC(=O)N2c3ccccc3NC(=O)CC2C)s1 (stereo not drawn) | 7.99
CCOc1ccc(S(=O)(=O)NCCC(=O)NCC(c2ccc(OC)cc2)N2CCCCC2)cc1 (stereo not drawn) | -46.9
CCOC(=O)N1CCC(NC(=O)c2cc(S(=O)(=O)N3CCc4ccccc43)cn2C)CC1 | -12.1
CN(C)CCNC(=O)c1ccccc1-c1ccccc1 | -1.88
CCCCC(=O)Nc1ccc(C(=O)Nc2ccc3c(c2)OCO3)cc1 | 2.35
CCCCN(C(=O)NC(=O)Nc1c(C)cc(C)cc1C)S(C)(=O)=O | -4.82
CCOC(=O)CN1C(=O)S/C(=C/c2ccc(N3CCCCC3)o2)C1=O | 13.1

SMILES | hERG current change (%, negative = inhibition) at 10uM [%]
CC(C)c1nc(N2CCOCC2)c(C#N)c2c1CCC2 | 7.25
Cc1cccc(C)c1NS(=O)(=O)c1c(C(=O)N2CCCCC2)c(C)n(C)c1C | 9.24
COc1ccccc1OCc1nnc(SCC(N)=O)n1-c1ccccc1 | 11.3
Cc1ccc(C(=O)C(C)OC(=O)c2ccccc2[N+](=O)[O-])cc1 (stereo not drawn) | 9.81
O=C(Nc1ncccn1)c1ccc([N+](=O)[O-])cc1 | 26.6
Cc1ccc(NC(=S)N(C)C(c2ccccc2)c2ccccc2)cc1C | 19.2
Cc1cccc(CN(CC(=O)N/N=C/c2cccs2)S(=O)(=O)c2ccc(Cl)cc2)c1 | 11.9
CC1(OC(=O)c2cnc3ccccc3n2)C(=O)C=C2C=C(c3ccc(C#N)cc3)OC=C2C1=O (stereo not drawn) | 4.63
O=C(N/N=C/c1ccc(O)cc1)c1cccc(N/N=C/c2ccc(O)cc2)c1 | 7.63
CC12COC3(C(=O)Nc4ccc(Cl)cn4)CC1CCC32C (stereo not drawn) | 3.6
CCOc1nc2cnccc2n(CC(=O)Nc2c(C)cccc2CC)c1=O | 8.7
CN(CC(O)COCc1ccccc1F)C1CCCCC1 (stereo not drawn) | -14.6
O=C1CC(C(F)(F)C(F)(F)C(F)(F)F)=Nc2ccccc2N1 | -15.1
O=C(O)c1ccc(NNC(=S)Nc2cc(C(F)(F)F)ccc2Cl)cc1 | 19.4
O=C1c2cccnc2C(O)N1Cc1ccccc1 (stereo not drawn) | 1.78
O=C(CCNS(=O)(=O)c1ccc(Cl)cc1)N1CCOCC1 | 22.4
CCc1c(C)c2cc(Cl)c(O)c(CN(C)C)c2oc1=O | 10.8
COc1ccc([N+](=O)[O-])cc1N(CC(O)CN1CCCCC1)S(=O)(=O)c1ccccc1 (stereo not drawn) | -11.2
Cc1ccc(OCCN2C(=O)C(=O)c3cc(C)ccc32)cc1 | -7.56
COc1ccc(/C=N/Nc2ccc([N+](=O)[O-])cc2)cc1Cn1cc([N+](=O)[O-])cn1 | 17.7
O=C(OCC#CCSc1nnc(-c2ccccc2)o1)c1cc2ccccc2o1 | 4.07
